# The supplement of paper PMC8728848
# Some of the results follow.
# B1: PX14367B-bvu-516-23-516 (Bacteroides vulgatus) (protein)
# chain: LDTIPTTYVDAGSVFGKTGDAEKVLNGGWNYLMETFNSYANPGYGAMLRANDAMGSDVVLNSKYGFRTHNEFSAIYGKGGTNTLSWLLAYRVINDCNGVLDNIDAAEGTQADRNRIKGQALALRGFLYLHLASCYSFAIDKDPDAVCAPIYTQSTDETIAAEGKPASSVSEVYAQSINDLEEALELIPETYVRDAKHKIDNEVVLGILSRACLYARQWEKAKTYSDKLLAKDNYLMTESEYKAGFNSVDNKEWIWGHAQTNDQSNASYQFHYLDTTTKGSYYYSFNVDPYFRDLFEDGDYRKEMLFWATDPGADVESAAYVWMRNSKFRFRDIENQLGDIVLMRVAEIYLINAEAKAHLNDPDAINKLNDLKTARGAKTIHTNLSQQDLLETIWLERRKELWGEGFSLIDIIRNQQTVVRNAYPEGPIDYIYTDENGQTHTLKKKTQGHRFFNFPDKSAFCPNSKYYLYRITDSEELANKNLYKDHPKLSIYTK
# How the values were obtained:
# Assay in all cases: glycan array binding signal (z-score within array); higher = stronger binding
# Settings in all cases: glycan notation: IUPAC condensed, linker removed
# [1] = target: Gal(a1-3)Gal(b1-3)GlcNAc
# Method in brief: (§1)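 Glycan array data came from 3228 arrays in the Consortium for Functional Glycomics database, and only arrays with an available protein sequence were kept. Glycan names were put into IUPAC-condensed notation, and columns mapping to the same glycan were averaged. The binding signal is a within-array Z-score, averaged across arrays of one protein sequence run at different concentrations or buffers and across linkers. A negative Z-score can be read as non-binding.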
# [2] = target: Gal(a1-3)Gal(b1-3)GlcNAc(b1-2)Man
# Method in brief: as §1
# [3] = target: Gal(a1-3)Gal(b1-3)GlcNAc(b1-2)Man(a1-3)[Gal(a1-3)Gal(b1-3)GlcNAc(b1-2)Man(a1-6)]Man(b1-4)GlcNAc(b1-4)GlcNAc
# Method in brief: as §1
# [4] = target: Gal(a1-3)Gal(b1-3)GlcNAc(b1-3)GalNAc
# Method in brief: as §1
# [5] = target: Gal(a1-3)Gal(b1-3)GlcNAc(b1-6)GalNAc
# Method in brief: as §1
# [6] = target: Gal(a1-3)Gal(b1-3)[Fuc(a1-4)]GlcNAc(b1-2)Man(a1-3)[Gal(a1-3)Gal(b1-3)[Fuc(a1-4)]GlcNAc(b1-2)Man(a1-6)]Man(b1-4)GlcNAc(b1-4)GlcNAc
# Method in brief: as §1
# [7] = target: Gal(a1-3)Gal(b1-4)Glc
# Method in brief: as §1
# [8] = target: Gal(a1-3)Gal(b1-4)GlcNAc
# Method in brief: as §1
# [9] = target: Gal(a1-3)Gal(b1-4)GlcNAc(b1-2)Man
# Method in brief: as §1
# [10] = target: Gal(a1-3)Gal(b1-4)GlcNAc(b1-2)Man(a1-3)[Gal(a1-3)Gal(b1-4)GlcNAc(b1-2)Man(a1-6)]Man(b1-4)GlcNAc(b1-4)GlcNAc
# Method in brief: as §1
# [11] = target: Gal(a1-3)Gal(b1-4)GlcNAc(b1-3)GalNAc
# Method in brief: as §1
# [12] = target: Gal(a1-3)Gal(b1-4)GlcNAc(b1-6)GalNAc
# Method in brief: as §1
# [13] = target: Gal(a1-3)Gal(b1-4)[Fuc(a1-3)]GlcNAc
# Method in brief: as §1
# [14] = target: Gal(a1-3)Gal(b1-4)[Fuc(a1-3)]GlcNAc(b1-2)Man(a1-3)[Gal(a1-3)Gal(b1-4)[Fuc(a1-3)]GlcNAc(b1-2)Man(a1-6)]Man(b1-4)GlcNAc(b1-4)GlcNAc
# Method in brief: as §1
# [15] = target: Gal(a1-3)GalNAc
# Method in brief: as §1
# [16] = target: Gal(a1-3)[Gal(a1-4)]Gal(b1-4)GlcNAc
# Method in brief: as §1
# [17] = target: Gal(a1-4)Gal(b1-3)GlcNAc(b1-2)Man(a1-3)[Gal(a1-4)Gal(b1-3)GlcNAc(b1-2)Man(a1-6)]Man(b1-4)GlcNAc(b1-4)GlcNAc
# Method in brief: as §1
# [18] = target: Gal(a1-4)Gal(b1-4)Glc
# Method in brief: as §1
# [19] = target: Gal(a1-4)Gal(b1-4)GlcNAc
# Method in brief: as §1
# [20] = target: Gal(a1-4)Gal(b1-4)GlcNAc(b1-2)Man(a1-3)[Gal(a1-4)Gal(b1-4)GlcNAc(b1-2)Man(a1-6)]Man(b1-4)GlcNAc(b1-4)GlcNAc
# Method in brief: as §1
# [21] = target: Gal(a1-4)Gal(b1-4)GlcNAc(b1-3)Gal(b1-4)Glc
# Method in brief: as §1
# [22] = target: Gal(a1-4)GlcNAc
# Method in brief: as §1
# [23] = target: Gal(a1-6)Glc
# Method in brief: as §1
# [24] = target: Gal(b1-2)Gal
# Method in brief: as §1
# [25] = target: Gal(b1-3)Gal
# Method in brief: as §1
# [26] = target: Gal(b1-3)Gal(b1-4)GlcNAc
# Method in brief: as §1
# [27] = target: Gal(b1-3)GalNAc
# Method in brief: as §1
# [28] = target: Gal(b1-3)GalNAc(a1-3)[Fuc(a1-2)]Gal(b1-4)Glc
# Method in brief: as §1
# [29] = target: Gal(b1-3)GalNAc(a1-3)[Fuc(a1-2)]Gal(b1-4)GlcNAc
# Method in brief: as §1
# [30] = target: Gal(b1-3)GalNAc(b1-3)Gal
# Method in brief: as §1
# [31] = target: Gal(b1-3)GalNAc(b1-3)Gal(a1-4)Gal(b1-4)Glc
# Method in brief: as §1
# [32] = target: Gal(b1-3)GalNAc(b1-4)Gal(b1-4)Glc
# Method in brief: as §1
# [33] = target: Gal(b1-3)GalNAc(b1-4)[Neu5Ac(a2-3)]Gal(b1-4)Glc
# Method in brief: as §1
# [34] = target: Gal(b1-3)GlcNAc
# Method in brief: as §1
# [35] = target: Gal(b1-3)GlcNAc(a1-3)Gal(b1-4)GlcNAc
# Method in brief: as §1
# [36] = target: Gal(b1-3)GlcNAc(a1-6)Gal(b1-4)GlcNAc
# Method in brief: as §1
# [37] = target: Gal(b1-3)GlcNAc(b1-2)Man
# Method in brief: as §1
# [38] = target: Gal(b1-3)GlcNAc(b1-2)Man(a1-3)[Gal(b1-3)GlcNAc(b1-2)Man(a1-6)]Man(b1-4)GlcNAc(b1-4)GlcNAc
# Method in brief: as §1
binder,measurement,setting,value
B1,glycan array binding signal (z-score),[1],1.82
same,glycan array binding signal (z-score),[2],0.781
same,glycan array binding signal (z-score),[3],0.222
same,glycan array binding signal (z-score),[4],-0.21
same,glycan array binding signal (z-score),[5],-0.28
same,glycan array binding signal (z-score),[6],0.276
same,glycan array binding signal (z-score),[7],-0.194
same,glycan array binding signal (z-score),[8],-0.311
same,glycan array binding signal (z-score),[9],-0.258
same,glycan array binding signal (z-score),[10],0.567
same,glycan array binding signal (z-score),[11],-0.161
same,glycan array binding signal (z-score),[12],-0.35
same,glycan array binding signal (z-score),[13],-0.376
same,glycan array binding signal (z-score),[14],-0.017
same,glycan array binding signal (z-score),[15],-0.361
same,glycan array binding signal (z-score),[16],5.23
same,glycan array binding signal (z-score),[17],0.219
same,glycan array binding signal (z-score),[18],-0.204
same,glycan array binding signal (z-score),[19],-0.328
same,glycan array binding signal (z-score),[20],-0.1
same,glycan array binding signal (z-score),[21],-0.356
same,glycan array binding signal (z-score),[22],-0.32
same,glycan array binding signal (z-score),[23],-0.252
same,glycan array binding signal (z-score),[24],-0.362
same,glycan array binding signal (z-score),[25],-0.365
same,glycan array binding signal (z-score),[26],-0.384
same,glycan array binding signal (z-score),[27],-0.198
same,glycan array binding signal (z-score),[28],-0.39
same,glycan array binding signal (z-score),[29],-0.361
same,glycan array binding signal (z-score),[30],-0.277
same,glycan array binding signal (z-score),[31],-0.336
same,glycan array binding signal (z-score),[32],-0.241
same,glycan array binding signal (z-score),[33],-0.373
same,glycan array binding signal (z-score),[34],-0.23
same,glycan array binding signal (z-score),[35],0.107
same,glycan array binding signal (z-score),[36],0.187
same,glycan array binding signal (z-score),[37],-0.216
same,glycan array binding signal (z-score),[38],7.76
